The results in this text go back to paper PMC10726135.

The other results are listed elsewhere or left out. At the low end of the ranking the order means little. Measured with an extract: partners may take part in the binding.

The target in the test is T1, HNF4alpha2 (COS-7 nuclear extract) (UniProt P41235).
T1 sequence: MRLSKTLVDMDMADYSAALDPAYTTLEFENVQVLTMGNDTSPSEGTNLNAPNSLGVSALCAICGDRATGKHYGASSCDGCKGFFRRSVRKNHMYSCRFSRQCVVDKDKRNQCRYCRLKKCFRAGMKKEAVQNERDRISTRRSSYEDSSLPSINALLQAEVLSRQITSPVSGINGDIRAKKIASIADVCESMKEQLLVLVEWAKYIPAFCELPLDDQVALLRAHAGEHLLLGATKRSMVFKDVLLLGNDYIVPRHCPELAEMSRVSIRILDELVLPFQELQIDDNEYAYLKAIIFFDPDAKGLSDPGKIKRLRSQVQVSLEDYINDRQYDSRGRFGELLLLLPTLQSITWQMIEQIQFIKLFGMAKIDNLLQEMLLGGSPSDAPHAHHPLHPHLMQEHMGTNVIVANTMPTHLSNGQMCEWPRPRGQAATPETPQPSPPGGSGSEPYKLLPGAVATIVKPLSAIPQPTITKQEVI
As to the kind of experiment: protein-binding microarray. The conditions noted are these: COS-7 nuclear extract on double-stranded Agilent 4x180k PBM; binding buffer, salt, pH and temperature not given; high values mean tight binding; double strand, one strand shown; sequences stand for … in …GCCTAGGGAGATTAGAGTATCGGTCGA
As for CGCCCCGCCTTCGCGCCCGTTTTCGTTTGC, the binding signal (log2 normalized intensity) was determined as 2.07.
Under GCCATACGTCTAGAGCTGTCCAGCAGACAA stands -1.14; under GTGACCTTGAGCACTAAAGAGGCTACCAGA, -1.12; under AGACTGGTTTGCACAGGTTACACAGTATGT, 0.747.
Under ACATTCCTAAAAGCTTTCTTGGGCAAGAAA stands -1.12; under GAAAGGAAATCATTCCAGAAAGACAGCTGC, -1.02.
Under TATGTGGTGGAATGGAAAGAATATGAACTT stands 1.66.
AGGCCAGCTGTCTGGTTTGACCTTAAGTCA: the binding signal (log2 normalized intensity) was determined as 4.87.
Under AAGTAACAAGAGGCAAAGGCCACAGCTCAG stands -1.21; under TTTACAGCACTTCATCCTTATGTAACTGTA, 0.644; under GAGAAAGCAGTGACCATCCCAAAGCTTTTT, -1.17.
Under AAATGCTGATAATGATATGGACAATGAAAT stands 0.827; under CCCCCACACAGACAAAGACAGAGAGGCTTC, 1.84.
Under GGGCAGCACAGCCTCCCTGTGGGGGAGGTG stands -1.21; under CTGCCCTTCCCTCCACTATTGTCCTATGAC, 2.33; under CCCCTGGGCTCAAGCGATCCTCCCACTTCA, -0.639.
With GTCCAGGAGTGCAAAGCTGCTATGAGCTAT, the binding signal (log2 normalized intensity) is -1.08.
Under CTTCCAGCCATTTTGTGAGCTCTGATGGCG stands -0.92; under AAAACAGGTAGAGAGCTGTCTGCTGAGGAT, -1.04.
Under GCCAGAGTTCCTGTGCAAGCCCCTGACCAA stands 0.583; under GCATAGATGTTTAGCTATCAGTGTTGACCT, 4.26; under TTCAGAAGGTAGGTAAGGGGGAATGCCAAC, -1.18.
On to TGCGACAGGGAGATTTCCTGGGAGAGAAAA, for which the binding signal (log2 normalized intensity) is -1.18.
Under TGGTAACCGGAGCAAAGGTTACTCTTGTTA stands 2.85; under ATCTAGTTTCCTAGCTCACTGATAAGAAAG, -1.07; under TACTTTAGCTGCCAGAGGTTCTTTCACAGG, -0.0416.
Under CAACATTGCGCAATGCACACACTTACACAT stands -1.21; under TTTCTGCTCTCAACTAGAGATAAACTTTTG, 0.835; under AGTGCATGAATCAACTGTTGTGGACCACGT, 1.74.
Under AAATGAGAATGAGACCTGCTAGGCTGCATT stands -1.33; under AGTTGGGAAAAGTAACACAGTAAGAGACTT, -0.782.
In the case of TTCATCTCACAGAGTGGAGTCTTCCGTTTG, the binding signal (log2 normalized intensity) amounted to 0.641.
Under TGGCTGGCTTTAGAGTTGTAGCTCTCAGCT stands -1.12; under GACCTGGGAATTCAAGGAATGCAGCTCAGA, -1.21.
Under AGTCAGTGAAGGAGCTGACTAGATTTCTGT stands -0.399; under ATTTCTGTTGTTGATTTAACATTTGTGATC, 1.92; under TGAGATAATGCTGGTAAAGCACTTTGCCCC, 4.81.
Under CTAGGTAAGCACAGGTTTCTGTCCTGGTCA stands 1.3.
As to TTGGTCTTATTATCTTCAATGATAAGGAAT, the binding signal (log2 normalized intensity) was determined as 0.897.
Under TTCAAGTAGAGCTTCACCTCTAAATCTATT stands -0.707; under AACTCTGGAGTTTGCCCTTCACAAATTAGA, 2.58; under AAAAATCCTGCCAAACCAGTTCAACAAGAA, -1.14.
Under GCTGCCCTGCACCTGGAGCCCTTAGGGTCA stands 2.22.
Under AGCAGTGACCATCCCAAAGCTTTTTGATTG stands -1.
Turning to TGTCAAGATTGAGACATTCATGGCTTTTGT, the binding signal (log2 normalized intensity) worked out at 0.156.
For TGCTGAGGAGGGCCTGGGGGACAGCAGGGG, the binding signal (log2 normalized intensity) is -1.11.
As to TTTTGCCCCTGCAGAGTTTTTTACTGCTCC, the binding signal (log2 normalized intensity) stood at 0.255.
On to GCCTGGGGTTTGGCTCCAAGGCTGAAGGTC, for which the binding signal (log2 normalized intensity) came out at 3.17.
Under GGAGCTCATACCTCTTACCAGATAGATGCT stands -1.09; under AGCTGCAAGTGCCAACAAACTCAATCCTGG, -1.11.
Under GCGCCCTTTGTTCTCCGGGTTCTGCGCAGG stands -0.133; under CAAAGGTGCAAAGGTTAAAATGCCCTCACA, 5; under CAAAGGTGAATGACCCCTCCCCTCCCCCTT, 5.89.
Under ATAATCTTTGAAATCTGCAAATAGACATGA stands 1.35; under TGTACAAAGCCATCAGCACTGGTTCAAAGT, 1.34.
Consider GCTGGGCAGAGGGACAACTGAGTTACGTAA, for which the binding signal (log2 normalized intensity) was -0.853.
Under ATGTCATGCAGCTAAAAGCAGCATCCCTGA stands -1.13; under TCTCCTCCACAGAGCACAGGATCCAGAGGT, -0.742.
Under GATCTGGCCAGGCCTGGTTCGGGATTATGG stands 1.01.
Regarding TTACAGGCAATTGATAATGATGTTTACATT, the binding signal (log2 normalized intensity) came out at 0.64.
For TTGACATAAACAGAAGCAATCACAAGGAAT, the binding signal (log2 normalized intensity) is -1.11.
Under CCTGAAAGAGAGGAGGCTGAAGACTTTGCA stands -1.22; under GTTTTTAAAGGCTTTTAAAGGCTAGTGAAA, -0.199.
Under TGCCTTAAGTTGAAGTGAGTTGTTTGTTTT stands 2.2; under GACCTCATGTAGTCACATACCTATGCAAAC, 0.671; under TGAATGGCTGATTGGCAGGCATTCCACACT, -1.24.
Under CCATATTGACTAAACATTCTTGAATTTCGT stands 1.57.
AAGCCACAGTACAAAGGTGAGCTTTTATCT: the binding signal (log2 normalized intensity) is 3.04.
Under GTGACCTTTGACCTCAGAGAGCCGGAAACT stands 7.21; under GCACTGGTTCAAAGTGTAGCGCAGCCAGTT, -0.821.
Under TCTGGGGCCTATCTTTCTGTCTCATTCCCT stands -0.0755; under AAGTCAGGTACTGGTAGCCTGGGCCCCAGG, -0.803.
Under CAAGAATACGGATTCTTAAGGGCAAAGGTT stands 5.88.
With CCCCACTGTAGTAAGGGAGTGTGGGGTGGT, the binding signal (log2 normalized intensity) is -0.108.
In the case of TGACTGTGGTACTCCAAAGGTCAGTTTAAT, the binding signal (log2 normalized intensity) is 4.06.
Under TCTTTGCCCATAGAATCTTAGGAAAGCACA stands -0.987; under TCTTATTGCCTCATGTTTGCAGAATGGCTG, 1.25; under GTTGGTTTCTGGGATTTGTACAAGTGATTG, 1.89.
Under GGCCTTGGGCCACCTGAGACAGTTTATGCC stands -0.994; under AGAAATATCAGCAAGGAAATAAAAGAGCCT, -1.34.
Consider TGATGACGCCACGCCGCTCTTTCTCTTTCA, for which the binding signal (log2 normalized intensity) is -1.08.
Regarding CTTACTTGGCCTGTTTGCTGAAGGCCATGC, the binding signal (log2 normalized intensity) was 0.0452.
Under CAGAGGGAAGAGGAAGCATCCTATAGGCCT stands -1.05; under AAGATAGGAATGTACATAATCTGGACCCAA, 3.59; under GAAACCCTAAACCTGCAAACCTTTGACCTT, 5.31.
Under TGCTGTCTGTCTTCGGGCGGCGGCCTCTGG stands 0.733; under CAGAAAGCTCTTTGCACAGTACTGATCTGG, 0.94.
On to GCCTAGGTATTGAGGGAGCAAAGGGCATGG, for which the binding signal (log2 normalized intensity) amounted to 3.41.
Turning to CCGCGATTCCCGCCGCCTCCGCTGGGGGAC, the binding signal (log2 normalized intensity) is -1.16.
Under AATGCGAGAGTACACAGAAGTTAATTTCAA stands -1.21; under CTTCCCAATCAGAAACCGGGCCAATGGGTT, 0.701; under CTTCAGCTTGAAAACACAACAAAAGAACTC, -0.456.
Under TCATTTCAGCCTTAACTCAAAAGGCCAAAG stands -0.978.
